Test results published in patent EP0312132A2 (priority 1987, dated 1989).

System: Hepatitis infect.Canis
Set-up: species or system Dogs
Settings: dog, in vivo

Nc1ccc(N=Nc2ccccc2)c(N)n1
% recovered: 100% | cured: 17
